The subject of one data set is H4. Briefly: cell viability relative to siNT1 (ATP content); H4 human neuroglioma and GL261 mouse glioma; higher = less toxic. As to conditions: siRNA concentration 10 nM; 96 h; human.
The test system of the next data set is GL261. The description is as above. As to conditions: siRNA concentration 25 nM; 96 h; mouse.

Shown are siRNA guide strands that differ only in the seed, positions 2 to 7.
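Further: cells reverse transfected with siRNA duplexes via lipid reagent, ATP read by luminescence, triplicate wells, values scaled to mean viability with non-targeting control siNT1.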

With UGAGGAUACAUGUAAACCA, the figures for the cell viability in the data set on H4 and in the data set with GL261 were 43% and 13.7%, respectively.

For UGAGGCAACAUGUAAACCA, the cell viability with H4 was found to be 42.7%; with GL261 it was 10.2%.

In the case of UGAGGCCACAUGUAAACCA, the cell viability was 14.6% in the data set on H4 and 5.44% in the data set with GL261.

For UGAGGCGACAUGUAAACCA, the values for the cell viability in the data set on H4 and in the data set with GL261 were 70.6% and 17.4%, respectively.

For the sequence UGAGGCUACAUGUAAACCA, the cell viability came to 32.8% in the data set on H4 and 6.23% with GL261.

For the sequence UGAGGGAACAUGUAAACCA, the values for the cell viability in the data set with H4 and in the data set on GL261 were 48.1% and 27.5%, respectively.

For the sequence UGAGGGCACAUGUAAACCA, the cell viability in the data set on H4 turned out to be 18.8%; with GL261, 13%.

Turning to UGAGGGGACAUGUAAACCA, the results for the cell viability in the data set with H4 and in the data set with GL261 were 23% and 11.8%, respectively.

UGAGGGUACAUGUAAACCA: the results for the cell viability in the data set with H4 and in the data set with GL261 were 10.4% and 17.8%, respectively.

For the sequence UGAGGUAACAUGUAAACCA, the cell viability came out at 69.3% in the data set with H4 and 41.7% in the data set with GL261.

In the case of UGAGGUCACAUGUAAACCA, the cell viability worked out at 20.6% in the data set with H4 and 12.9% in the data set on GL261.

Turning to UGAGGUGACAUGUAAACCA, the cell viability in the data set on H4 amounted to 63.3%; with GL261 it was 27.6%.

Take UGAGGUUACAUGUAAACCA: the figures for the cell viability with H4 and in the data set with GL261 were 55.4% and 26.2%, respectively.

Turning to UGAGUAAACAUGUAAACCA, the cell viability in the data set on H4 amounted to 108%; in the data set with GL261 it was 60.3%.

For UGAGUACACAUGUAAACCA, the cell viability amounted to 78.9% in the data set on H4 and 26.8% in the data set with GL261.

Consider UGAGUAGACAUGUAAACCA, for which the cell viability with H4 was 57.9%; with GL261, 27.4%.

As to UGAGUAUACAUGUAAACCA, the cell viability in the data set with H4 came to 81.6%; in the data set on GL261, 48.2%.

Turning to UGAGUCAACAUGUAAACCA, the cell viability is 63.5% with H4 and 35.5% in the data set with GL261.

On to UGAGUCCACAUGUAAACCA, for which the cell viability in the data set with H4 amounted to 30%; with GL261 it was 3.1%.

For UGAGUCGACAUGUAAACCA, the cell viability was 86.7% with H4 and 44.8% in the data set on GL261.

For UGAGUCUACAUGUAAACCA, the cell viability worked out at 67.6% with H4 and 24.6% in the data set with GL261.

Regarding UGAGUGAACAUGUAAACCA, the cell viability in the data set with H4 turned out to be 72.7%; with GL261, 50.5%.

As for UGAGUGCACAUGUAAACCA, the cell viability in the data set with H4 is 76.1%; in the data set with GL261 it was 53.7%.

On to UGAGUGGACAUGUAAACCA, for which the cell viability in the data set with H4 amounted to 33.3%; in the data set on GL261 it was 13.6%.

UGAGUGUACAUGUAAACCA: the cell viability in the data set with H4 worked out at 89.3%; with GL261, 21.2%.

As to UGAGUUAACAUGUAAACCA, the cell viability was 110% with H4 and 36.3% in the data set with GL261.

On to UGAGUUCACAUGUAAACCA, for which the cell viability is 62.6% in the data set on H4 and 19.9% with GL261.

Turning to UGAGUUGACAUGUAAACCA, the cell viability with H4 was 63.6%; in the data set with GL261, 39%.

For UGAGUUUACAUGUAAACCA, the figures for the cell viability with H4 and in the data set on GL261 were 83.8% and 22.5%, respectively.

On to UGAUAAAACAUGUAAACCA, for which the cell viability stood at 88.6% in the data set with H4 and 39.4% with GL261.

Regarding UGAUAACACAUGUAAACCA, the cell viability worked out at 81.1% in the data set on H4 and 17% with GL261.

For UGAUAAGACAUGUAAACCA, the values for the cell viability in the data set on H4 and in the data set on GL261 were 60.4% and 24%, respectively.

Take UGAUAAUACAUGUAAACCA: the cell viability amounted to 56.7% in the data set on H4 and 31.9% in the data set with GL261.

As for UGAUACAACAUGUAAACCA, the cell viability with H4 is 91.2%; in the data set on GL261, 25.5%.

For UGAUACCACAUGUAAACCA, the figures for the cell viability with H4 and with GL261 were 17.9% and 14.7%, respectively.

For the sequence UGAUACGACAUGUAAACCA, the cell viability in the data set on H4 turned out to be 110%; in the data set with GL261 it was 18.5%.

As for UGAUACUACAUGUAAACCA, the cell viability is 68% in the data set with H4 and 13.7% in the data set with GL261.

For the sequence UGAUAGAACAUGUAAACCA, the cell viability in the data set on H4 was 63.9%; in the data set with GL261, 17.9%.

Turning to UGAUAGCACAUGUAAACCA, the cell viability in the data set with H4 was 29.8%; with GL261 it was 6.25%.

Consider UGAUAGGACAUGUAAACCA, for which the cell viability worked out at 80.4% in the data set with H4 and 23.3% in the data set on GL261.

Consider UGAUAGUACAUGUAAACCA, for which the cell viability in the data set with H4 was 59.8%; with GL261 it was 10.2%.

Take UGAUAUAACAUGUAAACCA: the cell viability was 96.1% with H4 and 46% with GL261.

In the case of UGAUAUCACAUGUAAACCA, the cell viability in the data set with H4 is 50.3%; with GL261, 32.8%.

As for UGAUAUGACAUGUAAACCA, the cell viability in the data set on H4 was 74.5%; in the data set on GL261, 41%.

Consider UGAUAUUACAUGUAAACCA, for which the cell viability in the data set with H4 worked out at 67%; in the data set with GL261, 23.2%.

The values above are taken from the supplement of paper PMC8948288.
